In this assay the target is T1, biotinylated AviTag-His6-NCOA4^383−522-MBP (human, UniProt Q13772 383-522, biotin on the AviTag (BirA co-expressed)).
T1 construct: N-terminal AviTag followed by His6; C-terminal MBP; source: E. coli BL21 Tuner DE3, purified (Ni-NTA, MBPTrap, SEC); not shown: AviTag, N-terminal, kept; His6, N-terminal, kept; MBP, C-terminal, kept
T1 sequence (looked up): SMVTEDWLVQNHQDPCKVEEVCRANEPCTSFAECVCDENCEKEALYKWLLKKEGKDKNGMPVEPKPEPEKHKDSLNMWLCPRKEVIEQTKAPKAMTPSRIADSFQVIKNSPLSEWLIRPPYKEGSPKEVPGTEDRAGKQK
Briefly: BLI; biotinylated NCOA4^383−522 constructs loaded to 0.6 nm on streptavidin biosensors; GATE16 construct or GST in solution (up to 5 μM); 20 mM Tris, 150 mM NaCl, 0.05% Tween-20, 1% BSA, 1 mM DTT, pH 7.5; 30°C. The following applies: both partners purified.

B1: LDS* (GST-GATE16)2 (natural protein)
chain: not shown
notes: GATE16, LC3/GABARAP-family protein, Y49A and L50A in the LIR docking site; also called LDS* mutant of GST-GATE16; Y49 and L50 mutated to alanines; source: made by Q5 site-directed mutagenesis of GST-GATE16
B1: the binding result was “binds”.

The values are drawn from paper PMC12872393 (Life Science Alliance, 2026).
